First the molecules themselves.
B1: CPEB3 Ribozyme (parent)
chain: UAACAGGGGGCCACAGCAGAAGCGUUCACGUCGCAGCCCCUGUCAGAUUCUGGUGAAUCUGCGAAUUCUGCUGUAUAUCUC

Read counts are not given, so values of variants with three or more changes are uncertain.

The variants in the series derive from B1. Briefly: self-cleavage, relative activity (ratio to wild type); higher = more cleavage; in vitro, sequencing. A digest of the protocol:
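For each CPEB3 ribozyme variant, relative activity is its cleaved/total read fraction divided by the unmutated ribozyme's. Barcoded error-prone PCR libraries were transcribed by T7 RNA polymerase (5 hours, 37°C) and held in DNase I for 15 min before an EDTA stop, with cleavage occurring throughout. Template-switching reverse transcription and Illumina sequencing were used to read the RNAs. A 5-read minimum applied, and results are the mean of three batches.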
In the case of C12U A21G G33A, the self-cleavage worked out at 0.05.

For C12U A56U U67C A77U U80C, the self-cleavage was 0.38.

For C12U U25C G30A U41C A64G, the self-cleavage came out at 0.11.

Turning to C12G U49C U51C, the self-cleavage is 0.24.

For the variant A13C A21G U25C C32A A45C U69C, the self-cleavage came to 0.05.

Turning to A13C G30C G36A A64G A65C, the self-cleavage was 0.06.

As to C12U U41C U80C, the self-cleavage stood at 1.23.

As for C12U G33A A77G, the self-cleavage amounted to 0.21.

For the variant C12U A13G U41C A64G, the self-cleavage worked out at 0.39.

With A13C A35G U72C, the self-cleavage was 1.23.

On to C12A U26C U41A U58A C62U, for which the self-cleavage turned out to be 0.1.

Regarding A13C A47G U54A, the self-cleavage amounted to 1.07.

For the variant C12G A13G G16U A18U A65G, the self-cleavage stood at 0.08.

On to C12U U25C U43A, for which the self-cleavage was found to be 0.14.

On to A13C A15U U26C U48C U66C, for which the self-cleavage is 0.22.

As for C12G A56U A64G, the self-cleavage stood at 0.2.

Regarding C12U A13U U43A U72C, the self-cleavage amounted to 1.26.

For the variant C12U A15G A28G A45U A56G, the self-cleavage was 0.14.

For the variant A13C A28G C37U U66C U67A, the self-cleavage was found to be 0.42.

In the case of C12A U49C A57G U80C, the self-cleavage is 0.26.

For the variant C12U U25C U67C, the self-cleavage was determined as 0.07.

As to C12U U74A C79A, the self-cleavage was 1.34.

On to C12U U31C A56U U72A, for which the self-cleavage came out at 0.13.

C12A U43C U60A: the self-cleavage came out at 0.31.

For the variant C12U A18C U60A, the self-cleavage was found to be 0.33.

For the variant A13C C23G C32G U41C, the self-cleavage turned out to be 0.06.

Regarding A13C A18U U41C, the self-cleavage amounted to 0.44.

On to A13C A35U A47G, for which the self-cleavage stood at 0.19.

For A13C A18G A20U A45G, the self-cleavage was 0.35.

As to C12A U31G U49C, the self-cleavage is 0.18.

As for C12U C32U A35U U41G U58C U66C U69C, the self-cleavage was 0.07.

As to C12G A13C A18U U25C U60C, the self-cleavage turned out to be 0.06.

Turning to C12U G30U A47G U72C U74A, the self-cleavage stood at 0.19.

As to A13C U31C U49C, the self-cleavage came to 0.12.

For the variant C12U C17U A18G A21G A56G U60G A64G, the self-cleavage stood at 0.04.

Consider C12U U26C C37U U78C, for which the self-cleavage was 0.15.

On to C12A U25C U26C A35G A57C, for which the self-cleavage was 0.09.

In the case of C12U U25C C40A, the self-cleavage turned out to be 0.06.

With C12U C23G A35G U74C, the self-cleavage worked out at 0.16.

As to A13C A18G C23U A28G C29A U67C, the self-cleavage was 0.08.

For C12U A65G U78C, the self-cleavage stood at 0.47.

Regarding A13C A35G U41G U78C, the self-cleavage was found to be 0.28.

Regarding C12U A56G G63A, the self-cleavage turned out to be 1.26.

Take A13C C17U G52U A64G: the self-cleavage was found to be 0.36.

With C12U U25C U41A U51A U72C, the self-cleavage worked out at 0.08.

As for C12U C37A A47G, the self-cleavage was 0.34.

Turning to C12U U25C G52U U72A, the self-cleavage amounted to 0.2.

As for A13C A18G A20G A28G U48C, the self-cleavage was 0.

As to A13C A21G A28U A35G U80C, the self-cleavage worked out at 1.

For A13C A35U U60A U69A, the self-cleavage was 0.13.

In the case of A13C G24A C37A U54A, the self-cleavage was found to be 0.1.

As for A13C C23U A35U A47U U48C U54C, the self-cleavage amounted to 0.08.

For C12U A21G U51A U69C, the self-cleavage amounted to 0.36.

Consider C12U A13G U49C A65U U66C, for which the self-cleavage worked out at 0.07.

On to C12G U26A C32G U69A, for which the self-cleavage is 0.03.

Turning to C12A U26C U31C, the self-cleavage amounted to 0.31.

Turning to C12U U31A U54A A57G, the self-cleavage was 1.06.

For the variant A13C U25C G55A, the self-cleavage came out at 0.16.

Consider C12G A13G A20U A65G U66A, for which the self-cleavage came out at 0.33.

Turning to C12U A13G A15G U43A A64G, the self-cleavage amounted to 0.1.

On to C12U A28G A45U U76G, for which the self-cleavage amounted to 0.25.

Take A13C G22A U25C A28U A35G C71G U80A: the self-cleavage came out at 0.06.

With C12U U48C G52A U66A, the self-cleavage came to 0.33.

With C12U A28G U41C U72A, the self-cleavage amounted to 0.71.

Consider C12U U26C U80C, for which the self-cleavage stood at 0.77.

With C12G U31A A47G U60C, the self-cleavage is 0.09.

As for A13C U25A U26C, the self-cleavage amounted to 0.19.

For the variant A13C U25C A57G, the self-cleavage is 0.18.

For the variant C12U G16A A35G U43C U60A U66C, the self-cleavage is 0.11.

Regarding C12U U31C U41C A45G U51A U66G, the self-cleavage was 0.25.

Consider C12U A20U U26C A35U U66C, for which the self-cleavage worked out at 0.06.

For C12A U54A U72C, the self-cleavage came out at 1.1.

For C12U A20G A35U, the self-cleavage was 0.68.

In the case of C12U U51C A65G, the self-cleavage worked out at 0.88.

With C12G U51C U69A U72A, the self-cleavage is 0.15.

As for C12G A21U U51C, the self-cleavage was 0.18.

In the case of C12U A35G A47G U66C U74C, the self-cleavage was determined as 0.5.

With A13C A21G U51C U78C, the self-cleavage was 0.43.

Regarding C12U A28G A45C U48C U66C, the self-cleavage is 0.17.

For the variant A13C C32G G36A, the self-cleavage was found to be 0.15.

With C12U U26C C32U C37A U49C A65G G73U, the self-cleavage was determined as 0.04.

For C12U A45G A75U, the self-cleavage turned out to be 1.18.

As for C12U C17G A21G A64G U67C, the self-cleavage was determined as 0.18.

For the variant C12U U60C A64U, the self-cleavage turned out to be 0.29.

The values above are taken from the RNAGym collection of RNA variant scans (doi:10.1093/nar/gkz1192).
